The record followed here is the supplement of paper PMC11417369.

This is one part of the list.

For this experiment, the system named is PfHDP1 homeodomain (GST-tagged). Put plainly: gcPBM binding intensity (ln(normalized median fluorescence intensity)); higher = stronger DNA binding. Summed up: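 Using an Agilent 4 × 180k array, primer-extended double-stranded 36-bp intergenic genomic probes and negative controls were exposed for 1 h to GST-fused P. falciparum DNA-binding domains expressed in E. coli. Binding was carried out in 1× PBS with 1% milk, 0.2 mg/ml BSA, 0.5% salmon testes DNA and 0.03% Triton X-100, and protein was detected with Alexa488 anti-GST antibody and a 488 nm scan. Binding intensity is the highest Masliner-normalised natural-log median intensity across replicate spots of either probe orientation.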
In the case of “TTTTTTCTCTGTGGCTGTACTTTGAAGATATTTTAT [XGTACX_site8243]”, the “gcPBM binding intensity (ln)” value worked out at 6.99. To “ATATTGTATTTATGTACACACATTTTTGGAATATGA [CACACA_site4861]” belongs 7.01; to “ATATATATATATATATGTACATATTGTATTAATTAT [XGTACX_site1919]”, 9.2. Consider “CTCTGTTGTCTTAGTTGTACAATAGAAAAAAATAAT [XGTACX_site7043]”, for which the “gcPBM binding intensity (ln)” value worked out at 6.85. With “TCTTTTAAACAGTACACACACACATCTATATTTATA [CACACA_site6559]”, the “gcPBM binding intensity (ln)” value amounted to 7.27.

For “ATATATTTATATATTACACACAATATTGTACAGATA [CACACA_site8215]”, the “gcPBM binding intensity (ln)” value is 6.96.

Take “GAAGGAATATACAATTGTACTTGGCAAAAAAAAAAA [XGTACX_site1884]”: the “gcPBM binding intensity (ln)” value was 6.38. Under “AAAAAAGGAAAAGATACACACCGTAAATTAAAATTT [CACACA_site5908]” stands 6.18; under “GTTAAGAATATATAATGTACTTATTTTAATATAGTA [XGTACX_site6088]”, 6.25; under “AAATACTTGTCATATTGTACATGTTTGTGATATATA [XGTACX_site3185]”, 6.39. For “ATAATTTGGAAACACACACACACACCCACATATATA [CACACA_site2286]”, the “gcPBM binding intensity (ln)” value came to 7.17. Take “TGTTTATTTTTAAAAAGTACATATATAAAAAATATC [XGTACX_site4902]”: the “gcPBM binding intensity (ln)” value stood at 6.38. To “TTAAATGAAAAATGGGGTACATATATACAAATATAT [XGTACX_site5931]” belongs 6.2; to “AAAAAAAAATACTACTGTACTTTTTTTGGACATCTA [XGTACX_site1096]”, 5.87; to “TGATTATACGCACGCGCACACACAACCAAAAAAAAA [CACACA_site3537]”, 8.42. As to “AGGTACTTTTTTAAAACACACATATAACATATACAC [CACACA_site6629]”, the “gcPBM binding intensity (ln)” value turned out to be 6.86.

For “ACCCCCAATACGGAAACACACAAGTTATTTTATCAT [CACACA_site8874]”, the “gcPBM binding intensity (ln)” value turned out to be 7.14. On to “AATAATCTATATTGTACACACAAAATGGGAAAAAAA [CACACA_site6969]”, for which the “gcPBM binding intensity (ln)” value is 6.89. For the sequence “AATTAGATTTACTGAAGTACTTAATTTATTTTATTA [XGTACX_site3407]”, the “gcPBM binding intensity (ln)” value turned out to be 6.24. For the sequence “ATAAATGAAAAAAAGCGTACATATAAAAAAATATAT [XGTACX_site5063]”, the “gcPBM binding intensity (ln)” value was found to be 6.28. To “TGTAAATAATATAATAGTACGCATATTTTTATTGAA [XGTACX_site284]” belongs 6.34. To “ACTTACCCATTTATTACACACATAAAGGAAAATTTT [CACACA_site4873]” belongs 7.44; to “CTTATGTGCATACCTACACACTTACAGATATATATA [CACACA_site5622]”, 9.61. To “TAGGAAGAATTACTGTGTACTAAAATATTAAAAAGT [XGTACX_site4909]” belongs 6.56; to “TTCAAATATTTTATTTGTACATAAAAAAGAAAGTTA [XGTACX_site8287]”, 6.21; to “GATTTTTTTTTTTTTTCACACACTAATAATATTATC [CACACA_site464]”, 6.74. For the sequence “TGTTTATGTATCAATTGTACAAAAAAAAAAAAAAAA [XGTACX_site1590]”, the “gcPBM binding intensity (ln)” value was found to be 6.43. To “TTCAAAAAAATGTATACACACATAAGTATAATATAA [CACACA_site3758]” belongs 6.64; to “TAAATAATATCTATCACACACGCATATATACATATA [CACACA_site2622]”, 6.42. With “GTCGCATTTTATACAAGTACACATGAATTATACAAC [XGTACX_site2200]”, the “gcPBM binding intensity (ln)” value is 7.31.

With “ATTATTAAAAAGATGTAAATAAATGAATATATGCTT [CACACA_negctrl_site539]”, the “gcPBM binding intensity (ln)” value is 6.52. Consider “TATTAAGAATTTACATGTACTTGTTAAATAAGAAAA [XGTACX_site4466]”, for which the “gcPBM binding intensity (ln)” value came to 6.47. “TTCTATATATTTTAATGTACATATATGATTATTCTT [XGTACX_site8294]”: the “gcPBM binding intensity (ln)” value is 6.61. To “ATATAGTATAATAAAAGTACATTTTGATTTTTTCTC [XGTACX_site1797]” belongs 6.14; to “ATATAAATATATGGAAGTACACAAAAAAATTAAAAA [XGTACX_site8624]”, 6.67. Under “CATAAGAAAATAAAAACATGCACATAAGAAATATAC [TGCATGCA_site842]” stands 8.16; under “AATCTTCATACCAACACATGCACAAAAGAAATAAAA [TGCATGCA_site563]”, 8.75.

For “TATATTTATACATATTGTACATTTTATACTTTTACA [XGTACX_site3884]”, the “gcPBM binding intensity (ln)” value was 6.74. Under “ATTTATAATCAGGGTTGTACACTTATAGAATTTTTA [XGTACX_site4175]” stands 6.2; under “CATATAAAAATATGCACACACAGGAATACAAACATA [CACACA_site684]”, 9.64; under “AATAAAAAACTACAATATACAAAATTATTAAATCAA [GTGCAC_negctrl_site703]”, 6.12.

Consider “AAACGTACATAATACACACACATGTATCCATATAAA [CACACA_site5173]”, for which the “gcPBM binding intensity (ln)” value was 7.07.

Turning to “ACCTAAGAACTATTTACACACATATACAAAATATAT [CACACA_site2459]”, the “gcPBM binding intensity (ln)” value stood at 6.93.

Regarding “ATTGTTCTATGATTTGTACACACTTTTTTTTAAAAT [CACACA_site2825]”, the “gcPBM binding intensity (ln)” value turned out to be 7.27. In the case of “AATAAAATGAGATGTTGTACAGTTTTGATATATGCA [XGTACX_site3052]”, the “gcPBM binding intensity (ln)” value is 6.34.

Take “AAGTTTATCACAGCCACGCACACATAATATATGTAT [CACACA_site3670]”: the “gcPBM binding intensity (ln)” value was found to be 7. For the sequence “TTTAAAAATGCTACATGTACAAAATAAAATATAATA [XGTACX_site2905]”, the “gcPBM binding intensity (ln)” value was found to be 6.87. To “ATATATATATATAAAAGTACATGCTTATATATATAT [XGTACX_site3786]” belongs 9.02. Under “TACAAAATATATATGACACACATAAAAAAAAGTATA [CACACA_site1373]” stands 6.63. To “CACCCACTAATAAACACACACATATATATATATATA [CACACA_site389]” belongs 9.39. Regarding “TATATAAACATACATACACACATACAATAAGTAAAA [CACACA_site5118]”, the “gcPBM binding intensity (ln)” value was determined as 6.97. Regarding “ATTTTTTTTATTCAATGTACTTTTTTTTATATATAT [XGTACX_site4978]”, the “gcPBM binding intensity (ln)” value amounted to 6.81.

In the case of “GTATGTATGTATGTATGTACTTATGTAGTCTTAGTT [XGTACX_site1710]”, the “gcPBM binding intensity (ln)” value was 7.52. As to “AGTGTAGGTATATAAACACACATACAGATATATAAT [CACACA_site4900]”, the “gcPBM binding intensity (ln)” value came out at 6.66.

Regarding “TAAAAAATAAAATGGACACACACGTTCAAATTTAGA [CACACA_site2083]”, the “gcPBM binding intensity (ln)” value worked out at 6.5. For the sequence “TATTCAGGTCCAATGGTGCAATATATTTTTGTAATA [GTGCAC_site9607]”, the “gcPBM binding intensity (ln)” value came to 10.6. For “ATATATATTTTTTAATGTACTTATATTTTTATAATA [XGTACX_site2103]”, the “gcPBM binding intensity (ln)” value was 6.44. Under “ATACAATAAAGGTGTACACATATATGATGCAAGATG [CACACA_site5897]” stands 8.05. To “GGTCATATTTTTTGCACACAAAAAAAAATATAAAAT [CACACA_site3381]” belongs 10.2.

As for “AGCAATTGTGTTTTCACACATAAATATATTCCTCAC [CACACA_site5021]”, the “gcPBM binding intensity (ln)” value is 6.49. To “AATTAAACTCACACCACACACAAAAAAAAAAAAAAA [CACACA_site693]” belongs 6.15. As to “TTAATAAACCTTAGATGTACAGTTATATATAAAATA [XGTACX_site6681]”, the “gcPBM binding intensity (ln)” value is 6.59.

As for “ATATATATATATATATGTACACATATATGTGTTTGT [XGTACX_site62]”, the “gcPBM binding intensity (ln)” value amounted to 9.43. Under “TGAACTCACGAGCACACACACACATATATATATATA [CACACA_site8248]” stands 9.16; under “TTTTGATTGTTATTCGTATATTATTTTATGATTATA [CACACA_negctrl_site1593]”, 6.38. As for “CAAAATATTTTTATAACACACATATTTATAACGTGC [CACACA_site6659]”, the “gcPBM binding intensity (ln)” value is 6.43. To “AATAATCATTTTCATAGTACGTATGATTAGAAAAAA [XGTACX_site2589]” belongs 6.58; to “TTATACATTTGTAAATAAATAGAACTGTATTTTTTT [TGCATGCA_negctrl_site397]”, 5.9. Under “TATATACCGATATATACACACAAATACATAAGCTTC [CACACA_site6760]” stands 6.67; under “TGCCAATTTTTAAAAACATGCATTATATAGAATAAA [TGCATGCA_site872]”, 6.39; under “AATGGAAAATTATTAACACACACATATAAATATATA [CACACA_site7899]”, 6.61.

“TTTTCAATATATAGAGCATGCGCATCCACAAATATG [TGCATGCA_site380]”: the “gcPBM binding intensity (ln)” value was 7.14.

With “TACAACAATTTTTGCACACACCAAAACATAAAATAA [CACACA_site4964]”, the “gcPBM binding intensity (ln)” value came out at 10.3. As to “ATTAAAAGGGGGTTTACATGTGTGTGTGTAATATGG [TGCATGCA_negctrl_site293]”, the “gcPBM binding intensity (ln)” value turned out to be 7.55. Turning to “ATATTTCATCTAGCTACACACATATAATAAATTATT [CACACA_site4094]”, the “gcPBM binding intensity (ln)” value amounted to 7.09.

Consider “AAATGAATTATATAATATATATAAATAAATAAATAA [CACACA_negctrl_site359]”, for which the “gcPBM binding intensity (ln)” value stood at 6.57. To “TATTATATAACAAAAAGTACTTATAAGAAATATATA [XGTACX_site5467]” belongs 6.85; to “TAATAAGTACCTTTTGCATGTGGCACGCTTTTTTTT [TGCATGCA_site573]”, 6.21; to “AATATAAACAGACACACACACATATAGATTTATATT [CACACA_site7382]”, 6.8. Consider “GAAAATAGAAAAAGCACACATATATTTTGGAATGTA [CACACA_site551]”, for which the “gcPBM binding intensity (ln)” value was found to be 6.5.

As to “TTTTAATGAAAACACACACACACATATATATATATA [CACACA_site5295]”, the “gcPBM binding intensity (ln)” value is 9.23. Under “GGATAGATAATAGGGGGTACAAATATACATACATAT [XGTACX_site5089]” stands 7.73; under “CTAAATATATAAAAAAGTACAAAATAAATAATAATT [XGTACX_site2442]”, 6.77. For the sequence “TATTTCTGATTATTTTGTACACATTATATATAATGC [XGTACX_site6990]”, the “gcPBM binding intensity (ln)” value came out at 6.78.

“TATATATTATGACCACCACACACCTATACACATAAC [CACACA_site8773]”: the “gcPBM binding intensity (ln)” value came out at 7.08. For “ACATATAATAAAAAATGTACACACATAAGAAAATTT [XGTACX_site6153]”, the “gcPBM binding intensity (ln)” value is 6.57.

As for “AAAAAAAATATATAAACACACATATTTATATACTCA [CACACA_site4984]”, the “gcPBM binding intensity (ln)” value amounted to 6.27. To “ACTATAAATATATAAATATATATATATATATATATA [GTGCAC_negctrl_site65]” belongs 9.29.
